Binding data for seven molecules are collected here from PMC12266122.

Chains of the proteins cited; added tags and fusions are not shown. Residues count along the entry.
UniProt Q9UHY1: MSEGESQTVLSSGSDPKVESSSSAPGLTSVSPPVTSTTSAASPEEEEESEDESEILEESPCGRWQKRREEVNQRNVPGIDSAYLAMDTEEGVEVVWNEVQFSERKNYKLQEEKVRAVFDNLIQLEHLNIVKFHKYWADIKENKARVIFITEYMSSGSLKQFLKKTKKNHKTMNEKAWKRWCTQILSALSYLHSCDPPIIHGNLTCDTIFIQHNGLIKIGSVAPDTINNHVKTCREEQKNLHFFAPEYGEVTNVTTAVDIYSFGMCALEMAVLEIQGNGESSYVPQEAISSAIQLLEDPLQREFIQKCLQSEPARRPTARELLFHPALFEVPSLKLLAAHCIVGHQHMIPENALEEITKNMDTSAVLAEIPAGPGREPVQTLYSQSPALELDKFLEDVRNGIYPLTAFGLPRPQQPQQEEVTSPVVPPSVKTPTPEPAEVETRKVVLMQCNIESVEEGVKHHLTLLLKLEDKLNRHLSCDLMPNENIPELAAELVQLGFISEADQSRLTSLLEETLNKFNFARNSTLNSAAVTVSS
isolated CCTL1 domain of WNK1 (EGFP-WNK1 450-600) (Q9H4A3, residues 450-600): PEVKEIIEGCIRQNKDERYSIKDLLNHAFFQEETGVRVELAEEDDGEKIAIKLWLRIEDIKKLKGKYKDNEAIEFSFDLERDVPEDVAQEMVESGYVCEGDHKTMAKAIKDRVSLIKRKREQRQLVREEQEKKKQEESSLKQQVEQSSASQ
isolated CCTL2 domain of WNK1 (EGFP-WNK1 1056-1217) (Q9H4A3, residues 1056-1217): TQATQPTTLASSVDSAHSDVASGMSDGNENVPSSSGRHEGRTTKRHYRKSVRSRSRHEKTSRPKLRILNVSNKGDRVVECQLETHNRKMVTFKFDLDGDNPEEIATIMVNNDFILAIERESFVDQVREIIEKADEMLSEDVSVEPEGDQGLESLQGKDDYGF

No constants are given. Whether binding was seen depends on the method and setting. Binding seen in cells or lysates may run through a third protein. Some binding calls cover weakened binding; strength is not graded here. For some of these results: Where a sequence is shown, tags or fusion partners need not be part of it.

Assay [1] concerns the target T1, GFP-TSC22D4 full-length (FL) WT (human) (UniProt Q9Y3Q8).
T1 sequence: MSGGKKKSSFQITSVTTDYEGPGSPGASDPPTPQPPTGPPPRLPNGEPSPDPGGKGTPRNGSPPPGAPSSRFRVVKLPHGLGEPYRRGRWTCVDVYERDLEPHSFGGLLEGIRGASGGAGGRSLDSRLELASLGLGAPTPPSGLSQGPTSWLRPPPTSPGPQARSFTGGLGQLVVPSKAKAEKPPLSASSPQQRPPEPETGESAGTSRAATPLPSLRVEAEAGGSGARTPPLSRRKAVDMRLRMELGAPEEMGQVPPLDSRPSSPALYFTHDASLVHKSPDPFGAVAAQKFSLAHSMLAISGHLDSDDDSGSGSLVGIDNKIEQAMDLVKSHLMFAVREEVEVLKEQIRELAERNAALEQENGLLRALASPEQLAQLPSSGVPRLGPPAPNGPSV
Nature of the assay: co-IP; HEK293 co-transfected with GFP-TSC22D2 or GFP-TSC22D4 (full length) and FLAG-tagged full-length or C-terminally deleted TSC22D2/TSC22D4; immunoprecipitation and immunoblotting (Fig. 2F); lysis/IP buffer 50 mM tris-HCl pH 7.5, 1% NP-40, 100 mM NaCl.

Assay [2] deals with GFP-NRBP1 (N-terminal GFP knock-in at the endogenous NRBP1 locus) (human (endogenous in HEK293)) (UniProt Q9UHY1). As to the kind of experiment: co-IP; GFP-NRBP1 KI HEK293 cells with or without 0.5 M sorbitol (1 to 30 min; WNK inhibitors in Fig. 4F); immunoprecipitation with GFP nanobody beads; immunoblot of endogenous partners (Figs. 4E,F, 7C, fig. S5A).
The target of assay [3] is T2, GFP-TSC22D2 full-length (FL) WT (human) (UniProt O75157).
T2 sequence: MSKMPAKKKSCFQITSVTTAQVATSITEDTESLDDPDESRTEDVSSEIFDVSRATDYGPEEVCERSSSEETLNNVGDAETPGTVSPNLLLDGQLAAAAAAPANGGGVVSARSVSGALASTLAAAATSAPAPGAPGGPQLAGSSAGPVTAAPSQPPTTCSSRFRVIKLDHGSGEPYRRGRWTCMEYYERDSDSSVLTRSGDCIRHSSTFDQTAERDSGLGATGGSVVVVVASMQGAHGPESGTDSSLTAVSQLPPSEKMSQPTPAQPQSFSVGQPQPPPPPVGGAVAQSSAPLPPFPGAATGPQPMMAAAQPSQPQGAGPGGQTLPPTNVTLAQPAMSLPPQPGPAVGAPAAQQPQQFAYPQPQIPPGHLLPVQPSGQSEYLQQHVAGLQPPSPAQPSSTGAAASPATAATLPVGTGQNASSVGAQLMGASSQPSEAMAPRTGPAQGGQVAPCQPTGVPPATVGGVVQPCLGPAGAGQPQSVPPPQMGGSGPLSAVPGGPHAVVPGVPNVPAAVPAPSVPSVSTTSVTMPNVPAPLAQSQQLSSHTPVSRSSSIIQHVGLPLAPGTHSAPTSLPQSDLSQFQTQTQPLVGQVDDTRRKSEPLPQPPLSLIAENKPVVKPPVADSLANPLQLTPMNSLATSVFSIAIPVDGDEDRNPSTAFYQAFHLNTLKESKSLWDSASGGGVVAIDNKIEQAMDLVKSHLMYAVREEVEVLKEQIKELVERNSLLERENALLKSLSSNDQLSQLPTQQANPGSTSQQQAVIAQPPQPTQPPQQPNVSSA
As to the kind of experiment: co-IP; HEK293 co-transfected with GFP-TSC22D2 or GFP-TSC22D4 (full length) and FLAG-tagged full-length or C-terminally deleted TSC22D2/TSC22D4; immunoprecipitation and immunoblotting (Fig. 2F); lysis/IP buffer 50 mM tris-HCl pH 7.5, 1% NP-40, 100 mM NaCl.

In assay [4] the target is isolated CCTL1 domain of WNK1 (EGFP-WNK1 450-600) (human) (UniProt Q9H4A3). Nature of the assay: co-IP; isolated CCTL1 or CCTL2 domain of WNK1 co-expressed with full-length TSC22D2 or TSC22D4, wild type or RΦ-motif mutants (fig. S8, E and F).
In assay [5] the target is isolated CCTL2 domain of WNK1 (EGFP-WNK1 1056-1217) (human) (UniProt Q9H4A3). The assay is described as above.

B1: GFP-TSC22D4 full-length (FL) WT (protein, UniProt Q9Y3Q8 1-395)
chain: T1 sequence
Consider B1, for which the binding result in assay [1] was “binds”.

B2: TSC22D4, endogenous (protein, UniProt Q9Y3Q8 1-395)
chain: T1 sequence
With B2, in assay [2], the binding entry is “binds”.

B3: FLAG-TSC22D4 (full length, wild type) (protein, UniProt Q9Y3Q8 1-395)
chain: T1 sequence
In the case of B3, the binding entry in assay [3], in assay [4] and in assay [5] was “binds” each time.

B4: FLAG-TSC22D4Δ (TSC22D4 M1-N320, lacking the C-terminal TSC22 domain) (domain or fragment, UniProt Q9Y3Q8 1-320)
chain: MSGGKKKSSFQITSVTTDYEGPGSPGASDPPTPQPPTGPPPRLPNGEPSPDPGGKGTPRNGSPPPGAPSSRFRVVKLPHGLGEPYRRGRWTCVDVYERDLEPHSFGGLLEGIRGASGGAGGRSLDSRLELASLGLGAPTPPSGLSQGPTSWLRPPPTSPGPQARSFTGGLGQLVVPSKAKAEKPPLSASSPQQRPPEPETGESAGTSRAATPLPSLRVEAEAGGSGARTPPLSRRKAVDMRLRMELGAPEEMGQVPPLDSRPSSPALYFTHDASLVHKSPDPFGAVAAQKFSLAHSMLAISGHLDSDDDSGSGSLVGIDN
B4: the binding entry in assay [3] and in assay [1] was “no binding” each time.

B5: GFP-TSC22D2 full-length (FL) WT (protein, UniProt O75157 1-780)
chain: T2 sequence
With B5, the binding entry in assay [3] is “binds”.

B6: FLAG-TSC22D2 (full length, wild type) (protein, UniProt O75157 1-780)
chain: T2 sequence
On to B6, for which the binding result in assay [1], in assay [4] and in assay [5] was “binds” throughout.

B7: FLAG-TSC22D2Δ (TSC22D2 M1-I690, lacking the C-terminal TSC22 domain) (domain or fragment, UniProt O75157 1-690)
chain: MSKMPAKKKSCFQITSVTTAQVATSITEDTESLDDPDESRTEDVSSEIFDVSRATDYGPEEVCERSSSEETLNNVGDAETPGTVSPNLLLDGQLAAAAAAPANGGGVVSARSVSGALASTLAAAATSAPAPGAPGGPQLAGSSAGPVTAAPSQPPTTCSSRFRVIKLDHGSGEPYRRGRWTCMEYYERDSDSSVLTRSGDCIRHSSTFDQTAERDSGLGATGGSVVVVVASMQGAHGPESGTDSSLTAVSQLPPSEKMSQPTPAQPQSFSVGQPQPPPPPVGGAVAQSSAPLPPFPGAATGPQPMMAAAQPSQPQGAGPGGQTLPPTNVTLAQPAMSLPPQPGPAVGAPAAQQPQQFAYPQPQIPPGHLLPVQPSGQSEYLQQHVAGLQPPSPAQPSSTGAAASPATAATLPVGTGQNASSVGAQLMGASSQPSEAMAPRTGPAQGGQVAPCQPTGVPPATVGGVVQPCLGPAGAGQPQSVPPPQMGGSGPLSAVPGGPHAVVPGVPNVPAAVPAPSVPSVSTTSVTMPNVPAPLAQSQQLSSHTPVSRSSSIIQHVGLPLAPGTHSAPTSLPQSDLSQFQTQTQPLVGQVDDTRRKSEPLPQPPLSLIAENKPVVKPPVADSLANPLQLTPMNSLATSVFSIAIPVDGDEDRNPSTAFYQAFHLNTLKESKSLWDSASGGGVVAIDNKI
B7: the binding result in assay [3] and in assay [1] was “no binding” in each case.
